Assay results: the supplement of paper PMC7826260
This is one part of the list. Viral Rep nickase domains cut single-stranded DNA in vitro at 3 µM enzyme and 37 °C for 1 h; the strands have 90 letters, of which the middle is given. Uncut reads are compared with the no-enzyme pool on a log2 scale; more negative means more cut, near 0 not cut, and no call is made. Counts are relative to all reads; uncut strands gain when others are lost, and binding without cutting may add a little.

Assays:
Assay in all cases: uncleaved DNA left, log2 of reads against the no-enzyme library (log2 ratio); higher = less cleavage (more negative = more Rep cleavage of the k-mer); sequences stand for … in CTCGTCCG…ACCGGAGA
[1] = system: T1, Rep nickase domain of Muscovy duck circovirus
T1 sequence (protein, residues 1-111, tag omitted): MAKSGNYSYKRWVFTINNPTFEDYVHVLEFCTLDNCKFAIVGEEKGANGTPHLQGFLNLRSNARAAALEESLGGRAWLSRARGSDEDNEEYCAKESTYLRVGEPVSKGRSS
Description: (§1)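 A pool of 90-nt single-stranded DNAs with seven random bases just before the constant AC of the nick site (name = the seven bases) was cut by 3 µM recombinant His6-SUMO-tagged Rep nickase domain (300 nM DNA, 50 mM HEPES pH 8.0, 50 mM NaCl, 1 mM MnCl2, 1 h, 37 °C, three replicates). Uncut DNA was amplified and sequenced.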

[2] = system: T2, Rep nickase domain of banana bunchy top virus
T2 sequence (protein, residues 1-94, tag omitted): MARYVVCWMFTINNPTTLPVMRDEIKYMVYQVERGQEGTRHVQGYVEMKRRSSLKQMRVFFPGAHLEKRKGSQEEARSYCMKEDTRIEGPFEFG
Description: as §1

[3] = system: T3, Rep nickase domain of cabbage leaf curl virus
T3 sequence (protein, residues 1-116, tag omitted): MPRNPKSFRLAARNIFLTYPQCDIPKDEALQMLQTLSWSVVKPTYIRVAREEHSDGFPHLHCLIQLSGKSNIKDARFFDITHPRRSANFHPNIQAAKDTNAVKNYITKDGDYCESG
Description: as §1

[4] = system: T4, Rep nickase domain of chickpea chlorotic dwarf virus
T4 sequence (protein, residues 1-124, tag omitted): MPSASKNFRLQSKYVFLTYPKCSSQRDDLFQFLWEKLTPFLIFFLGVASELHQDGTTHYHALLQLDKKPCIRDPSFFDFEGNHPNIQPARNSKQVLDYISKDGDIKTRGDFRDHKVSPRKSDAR
Description: as §1

[5] = system: T5, Rep nickase domain of faba bean necrotic yellows virus
T5 sequence (protein, residues 1-98, tag omitted): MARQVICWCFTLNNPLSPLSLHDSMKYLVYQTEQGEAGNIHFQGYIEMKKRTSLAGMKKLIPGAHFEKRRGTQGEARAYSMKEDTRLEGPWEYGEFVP
Description: as §1

[6] = system: T6, Rep nickase domain of maize striate mosaic virus
T6 sequence (protein, residues 1-117, tag omitted): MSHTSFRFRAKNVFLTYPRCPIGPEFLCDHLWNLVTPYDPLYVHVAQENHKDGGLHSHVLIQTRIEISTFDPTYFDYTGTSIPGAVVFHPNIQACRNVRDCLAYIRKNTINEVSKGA
Description: as §1

[7] = system: T7, Rep nickase domain of porcine circovirus 2
T7 sequence (protein, residues 2-116, tag omitted): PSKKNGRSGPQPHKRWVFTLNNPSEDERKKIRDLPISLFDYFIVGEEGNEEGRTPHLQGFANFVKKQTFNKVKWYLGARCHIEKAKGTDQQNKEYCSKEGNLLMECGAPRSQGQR
Description: as §1

[8] = system: T8, Rep nickase domain of tomato golden mosaic virus
T8 sequence (protein, residues 1-124, tag omitted): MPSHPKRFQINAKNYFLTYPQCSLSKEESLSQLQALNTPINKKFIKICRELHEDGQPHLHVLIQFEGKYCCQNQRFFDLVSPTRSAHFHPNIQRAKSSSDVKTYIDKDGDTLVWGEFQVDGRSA
Description: as §1

[9] = system: T9, Rep nickase domain of tomato yellow leaf curl virus
T9 sequence (protein, residues 1-136, tag omitted): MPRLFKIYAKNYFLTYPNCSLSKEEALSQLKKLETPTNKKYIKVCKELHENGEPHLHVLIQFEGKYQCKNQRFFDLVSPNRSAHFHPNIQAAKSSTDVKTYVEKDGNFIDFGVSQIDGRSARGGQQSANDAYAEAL
Description: as §1

[10] = system: T10, Rep nickase domain of wheat dwarf virus
T10 sequence (protein, residues 1-137, tag omitted): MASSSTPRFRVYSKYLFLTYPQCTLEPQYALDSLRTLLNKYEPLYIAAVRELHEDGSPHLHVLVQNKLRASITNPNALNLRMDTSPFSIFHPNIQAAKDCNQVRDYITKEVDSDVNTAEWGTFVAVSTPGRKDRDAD
Description: as §1

Sequence | uncleaved DNA left (log2) [1] | uncleaved DNA left (log2) [2] | uncleaved DNA left (log2) [3] | uncleaved DNA left (log2) [4] | uncleaved DNA left (log2) [5] | uncleaved DNA left (log2) [6] | uncleaved DNA left (log2) [7] | uncleaved DNA left (log2) [8] | uncleaved DNA left (log2) [9] | uncleaved DNA left (log2) [10]
CTCATCT | -0.00102 | 0.0177 | -0.11 | -2.21 | -0.0145 | -0.831 | -0.109 | -0.00689 | 0.0941 | 0.0269
TACGAAT | 0.0373 | -0.0703 | -0.347 | -2.13 | -0.043 | -0.138 | -0.354 | 0.0896 | -0.0735 | 0.00111
ACAGCAC | -0.0262 | -0.12 | -0.602 | -0.805 | -0.0654 | -0.937 | 0.078 | -0.0405 | -0.139 | -0.165
AAAAGTA | 0.0277 | 0.101 | -0.36 | -2.23 | 0.0102 | -0.733 | -0.103 | 0.115 | 0.0417 | -0.0147
AGCTATT | -3.49 | -1.54 | -2.42 | -2.59 | -0.245 | 0.301 | -3.79 | -0.507 | -0.0119 | -2.23
TGGTATC | -0.0126 | 0.0479 | 0.461 | 1.36 | -0.0316 | 1.64 | -0.0296 | 0.0468 | 0.0703 | -0.0178
AGAATCT | 0.111 | 0.066 | 0.246 | -1 | 0.0454 | 0.272 | -0.513 | 0.121 | 0.0525 | 0.122
TAGGAAC | -0.0323 | 0.0259 | 0.158 | 0.896 | -0.0718 | 0.931 | 0.0637 | 0.0918 | -0.12 | -0.0348
GAACGGG | 0.00837 | 0.00978 | 0.115 | 0.692 | -0.118 | 0.553 | 0.0735 | -0.0155 | -0.2 | -0.0527
GCTTCTC | -0.0607 | 0.0592 | 0.218 | 0.416 | -0.103 | 0.104 | 0.0138 | -0.0222 | 0.0758 | 0.0251
GGGTAGT | -0.0333 | -0.00604 | 0.806 | 1.87 | -0.155 | 2.21 | -1.34 | 0.0198 | 0.0832 | 0.169
CCGATAT | -0.0132 | -0.179 | -0.0706 | -0.364 | -0.126 | -0.138 | -0.0528 | -0.166 | -0.235 | -0.115
ATATAAT | -3.34 | -0.183 | -1.93 | -2.81 | -0.0856 | -0.806 | -3.33 | -0.223 | -0.0705 | -0.364
TTTCGGA | -0.0772 | 0.0614 | 0.14 | 0.338 | -0.0185 | -0.0112 | 0.135 | 0.0533 | -0.0963 | -0.0374
GACGAAT | -0.0616 | -0.00775 | 0.214 | 0.138 | -0.129 | 0.955 | -0.0329 | 0.0229 | -0.212 | 0.0561
CTCTTTC | -0.132 | -0.118 | 0.0757 | -0.544 | -0.0478 | -0.836 | -0.0468 | -0.167 | -0.118 | -0.0239
TTGTTGA | 0.0477 | 0.0635 | -0.182 | -0.346 | 0.0266 | -0.95 | 0.0454 | -0.0452 | 0.12 | -0.0835
GGTCAAA | 0.0185 | 0.143 | 0.529 | 1.39 | 0.0958 | 1.89 | 0.229 | 0.134 | 0.0449 | 0.136
CTGCAGA | -0.128 | -0.207 | -0.565 | -0.659 | -0.0317 | -1.17 | 0.0442 | -0.0879 | -0.0415 | -0.0986
GGCGAAG | -0.0104 | 0.177 | 0.21 | 0.664 | -0.00348 | 1.26 | 0.146 | 0.119 | -0.0315 | 0.0985
TTCGGGG | 0.00381 | -0.0742 | 0.571 | 0.824 | 0.0295 | 1.13 | 0.15 | -0.00353 | -0.0632 | 0.0251
AGCAACG | 0.00715 | 0.0315 | -0.289 | -0.0974 | -0.00643 | -0.502 | 0.123 | 0.00761 | -0.00125 | -0.036
CCCACGA | -0.0525 | -0.0416 | -0.0912 | -0.338 | 0.153 | -0.741 | -0.0794 | -0.0227 | -0.107 | -0.0873
TAGTGTC | 0.121 | -0.06 | -0.0426 | -0.454 | -0.863 | -0.661 | -3.01 | 0.0558 | 0.0534 | -0.122
ACAGACT | -0.113 | -0.0108 | -0.256 | -1.92 | 0.0215 | -0.116 | -0.0205 | 0.00467 | -0.067 | -0.0882
TCACGAG | -0.0543 | 0.04 | 0.127 | 0.251 | -0.00663 | -0.912 | 0.0773 | 0.0135 | 0.00346 | -0.00375
TCACTCC | -0.0111 | -0.0284 | 0.152 | 0.124 | -0.0892 | 0.789 | 0.0744 | -0.0499 | 0.0292 | 0.00717
CGTGAAC | 0.00697 | 0.0344 | 0.207 | 0.376 | -0.0163 | 0.536 | 0.107 | 0.0309 | -0.0465 | 0.0297
GTGCGGC | 0.132 | 0.0524 | 0.0448 | 0.539 | 0.0135 | 0.44 | 0.197 | 0.0549 | 0.0899 | 0.0686
TAACGCT | -0.051 | 0.0666 | -3.17 | -3.5 | 0.0213 | -1.79 | -0.304 | -0.449 | -0.0226 | -2.09
